# Measured values: the BET-seq Pho4 binding data (Le et al. 2018)
# Some of the results follow. These are noisy estimates, calculated here from bound and input reads.
# Biological target: T1, Pho4 (S. cerevisiae) (UniProt P07270)
# T1 sequence: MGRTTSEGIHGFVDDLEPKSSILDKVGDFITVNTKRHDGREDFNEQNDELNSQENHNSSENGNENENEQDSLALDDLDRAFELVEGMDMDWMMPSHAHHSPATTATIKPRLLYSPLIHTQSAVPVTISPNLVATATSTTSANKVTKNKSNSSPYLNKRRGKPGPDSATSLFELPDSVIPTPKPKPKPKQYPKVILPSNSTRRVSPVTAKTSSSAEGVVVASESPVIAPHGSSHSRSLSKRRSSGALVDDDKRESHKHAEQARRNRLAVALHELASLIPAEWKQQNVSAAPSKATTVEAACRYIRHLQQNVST
# Test: relative binding free energy (BET-seq); higher = weaker binding
# Conditions: reference: library average
row,Sequence,relative binding free energy [kcal/mol]
1,ATTTGCACGTGAACGG,0.22
2,TGGTTCACGTGGGCCG,0.24
3,TTATTCACGTGTCCTT,0.35
4,TGTCTCACGTGTGGCT,0.24
5,CGTGTCACGTGTGGTG,0.18
6,AGATTCACGTGAAAGG,0.24
7,GTAGGCACGTGGGTAG,-0.19
8,GTATACACGTGGTTGG,-0.02
9,GAGGGCACGTGGAAGG,0.01
10,TATGTCACGTGTGGAA,0.15
11,TGTTGCACGTGGTACA,-0.13
12,GAGTTCACGTGGGATG,0.26
13,TAGGGCACGTGGCGTG,-0.27
14,AGGGACACGTGCGTTG,-0.05
15,GTCGACACGTGTGTGC,0.23
16,TAAGTCACGTGAGGAG,0.35
17,GTGTGCACGTGTCTGA,0.03
18,GTATTCACGTGTGTAG,0.23
19,CAAAGCACGTGTGGGT,0.05
20,ATCGTCACGTGAGATG,0.35
21,AGTATCACGTGTCGGG,0.14
22,AGGGACACGTGTGCTG,0.03
23,TGAAACACGTGGGGTA,-0.1
24,GTGATCACGTGTTATA,0.07
25,GTCGACACGTGGTTGA,0.02
26,GGTCGCACGTGATGGG,0.04

row,Sequence,relative binding free energy [kcal/mol]
1,AAAGGCACGTGAGGTG,-0.03
2,TGTAACACGTGGTGAT,-0.08
3,TATATCACGTGATATT,0.18
4,TGCGGCACGTGCTTTA,-0.02
5,TTGTGCACGTGTACTT,-0.1
6,GTGGTCACGTGTGCTT,0.22
7,GTTTGCACGTGCATCG,0.18
8,TTCGGCACGTGGGAAA,-0.09
9,CTTTTCACGTGTTGGT,0.19
10,AGATGCACGTGTGCGG,-0.05
11,TTTTCCACGTGGTATT,0.12
12,GTAGACACGTGTGTTC,0.07
13,TGCAGCACGTGAGGGA,0.15
14,GTATACACGTGGGTTT,-0.02
15,ATGATCACGTGGTACG,0.06
16,TATTTCACGTGTGGTC,0.37
17,GTCGCCACGTGAGGGG,0.19
18,GCGGTCACGTGAGTGA,0.3
19,ATACGCACGTGAAGTG,0.17
20,GGTGACACGTGATGGA,0.19
21,GGGATCACGTGGTTTG,0.15
22,AAGGGCACGTGTTGGC,-0.06
23,ATTTACACGTGCTGTG,0.08
24,ATGTTCACGTGTCAGT,0.07
25,TTCGACACGTGGTGTA,-0.09
26,ATTAACACGTGGGTCT,-0.21

row,Sequence,relative binding free energy [kcal/mol]
1,AGCGTCACGTGTTTGT,-0.03
2,CTCTGCACGTGAGGGG,0.15
3,GCTTCCACGTGGGTGT,-0.02
4,GGAACCACGTGTGGTT,0.09
5,ATTGTCACGTGTTTGG,0.08
6,GTTATCACGTGGTGTT,0.12
7,TGGTGCACGTGGCAGG,-0.05
8,GTCGACACGTGTGGTG,0.05
9,GGCGGCACGTGTATTT,0.06
10,CCGGTCACGTGGAGGT,0.02
11,GTATACACGTGTACGT,0
12,TAATTCACGTGGTGTA,0.14
13,GGCCGCACGTGGGGGC,-0.14
14,AGAATCACGTGTAGGC,0.41
15,TGAGACACGTGCGTTG,-0.13
16,GTTTGCACGTGTACGC,0.07
17,AGTGGCACGTGTAGCT,-0.1
18,GTCGACACGTGTTGTA,0.12
19,AGATGCACGTGTCGGT,0.02
20,AGGGTCACGTGTGCGC,0.12
21,CGTTTCACGTGTCAGT,0.2
22,CGGTGCACGTGGTTCG,-0.08
23,TTTTCCACGTGGCATG,0.07
24,TTTCTCACGTGGTAAT,0.07
25,GTCTTCACGTGTGCGG,0.28
26,ATTCTCACGTGTTTAA,0.25

row,Sequence,relative binding free energy [kcal/mol]
1,TGATGCACGTGTTGGG,0.04
2,AGTATCACGTGATGGA,0.18
3,GTTGTCACGTGTTGTC,0.16
4,TATTTCACGTGGTGCA,0.22
5,TAGTGCACGTGAAGAA,0.3
6,AAATTCACGTGTACGG,0.22
7,CTGTACACGTGAGTGT,0.13
8,TAGATCACGTGTGTAG,0.11
9,AAGGGCACGTGGGTAA,-0.23
10,CTGGTCACGTGGATGT,0.1
11,AGATTCACGTGGCTGT,0.06
12,TGTCACACGTGTGTGC,0.16
13,AAGGGCACGTGTGGTG,-0.11
14,AGTTTCACGTGAGGTC,0.34
15,TCGGGCACGTGAGAGC,0.18
16,TGATTCACGTGTAATT,0.34
17,AGCTTCACGTGGAGGG,0.35
18,GCGTGCACGTGGTAAT,-0.01
19,TATGTCACGTGATAGT,0.22
20,CATTACACGTGGAGGT,0.2
21,TTTTGCACGTGTAATC,0.14
22,GTGGACACGTGTAGAA,0.22
23,AGGGTCACGTGTACGT,0.06
24,AGGAGCACGTGAGTGT,0.1
25,AGTGTCACGTGAAGCT,0.12
26,TTACGCACGTGTTGGA,-0.24

row,Sequence,relative binding free energy [kcal/mol]
1,GTATGCACGTGAACGG,0.1
2,TTTGGCACGTGGACGT,-0.15
3,ATGGTCACGTGGAGAG,0.18
4,TGTAACACGTGAGGAA,0.21
5,AGGGCCACGTGGGAGT,-0.09
6,GGTGTCACGTGGAAAT,0.35
7,AAGGGCACGTGAGGTT,0.15
8,AGGAACACGTGGCGGG,0.05
9,GGGTACACGTGGTTTG,0.05
10,TTCTGCACGTGCTGTG,-0.04
11,TGACGCACGTGTCGGT,-0.12
12,TACAGCACGTGAGTGT,0.15
13,ATGGGCACGTGTGTCA,-0.16
14,GGAAACACGTGCGGGT,0.14
15,GGTATCACGTGAATGG,0.44
16,TCGTGCACGTGTCTGG,-0.04
17,GTAATCACGTGAATGT,0.33
18,TTCGGCACGTGTAAGT,0.12
19,AGCAGCACGTGTTTTG,-0.07
20,CGTGCCACGTGCGGGT,-0.11
21,TGATACACGTGTGGGC,0.15
22,TGGTCCACGTGGCTGT,-0.18
23,TGTGACACGTGATAGA,0.11
24,CTTGGCACGTGTGAAT,0.03
25,CGAGACACGTGGTTTG,0.16
26,GGGGTCACGTGACTTA,0.32

row,Sequence,relative binding free energy [kcal/mol]
1,GGTATCACGTGGCTGC,0.29
2,CTAATCACGTGTGGTT,0.06
3,TTAGGCACGTGAGATA,0.16
4,TAGTTCACGTGGTGGA,0.3
5,TTTCTCACGTGTTGAT,0.23
6,CGGCACACGTGGGCGG,0
7,TAGTGCACGTGTCTAG,0.09
8,TTTCGCACGTGCAGTG,-0.03
9,GTTTTCACGTGAGCTA,0.33
10,GGGGCCACGTGATGGA,0.2
11,TACGGCACGTGTTGGG,-0.02
12,GAGGGCACGTGTTCGG,-0.22
13,TGGAGCACGTGGGTTA,-0.17
14,GGCGACACGTGGGGTT,-0.05
15,GGTGTCACGTGGCCAG,-0.02
16,AGGATCACGTGCGGGG,0.1
17,TGATGCACGTGTCGAT,-0.04
18,TAGGGCACGTGCGTCT,-0.07
19,CTTGGCACGTGTGTGG,-0.08
20,TTTGTCACGTGGACGC,0
21,TGTACCACGTGAGTGT,0.14
22,AATGGCACGTGAAGGA,0.14
23,GGTGGCACGTGAAGTG,0.27
24,TTCTACACGTGCTGGG,0
25,ATAGTCACGTGTAAAG,0.14
26,TTAGGCACGTGCTGTC,-0.21

row,Sequence,relative binding free energy [kcal/mol]
1,CTCGGCACGTGGGAGT,-0.24
2,TTCTGCACGTGTAATG,0.03
3,TCGGGCACGTGGGTCT,-0.19
4,GAGTACACGTGTGGTT,0.15
5,CTGTTCACGTGCGGAG,0.2
6,GTCGTCACGTGGGAGC,0.05
7,GTGAACACGTGTGGGC,0.08
8,TTTGGCACGTGTCTGT,-0.11
9,ATATTCACGTGGATGG,0.2
10,TTAATCACGTGTTAGG,0.16
11,TTATACACGTGTAGCT,0.1
12,CGGTTCACGTGTTATG,0.08
13,TATGGCACGTGAAAAA,0.3
14,AGGTACACGTGTTAAG,0.1
15,GTGCTCACGTGTTGGG,0.31
16,AAAGACACGTGTTTTG,0.01
17,GCGTGCACGTGTTGAT,-0.15
18,GTGGACACGTGTATGG,0.21
19,GGAAACACGTGTGGGC,0.05
20,GAAGGCACGTGGCGGG,-0.25
21,GCTCTCACGTGTTGGG,0.33
22,TACGGCACGTGTGGAA,0.03
23,TACTTCACGTGATGTG,0.16
24,TTCTTCACGTGAAGTA,0.32
25,CATGTCACGTGTTAAG,0.17
26,TGTTGCACGTGCGAGA,0.11

row,Sequence,relative binding free energy [kcal/mol]
1,ATTAACACGTGGCTTT,-0.1
2,TGGGACACGTGAGAGC,0.22
3,TCTTGCACGTGGCGTT,-0.15
4,AACGGCACGTGCTGGG,-0.16
5,GCGTGCACGTGATGGG,0.12
6,TATTGCACGTGGGATA,-0.13
7,TTCGGCACGTGTTAGA,-0.05
8,TTGAACACGTGTGTCA,0.08
9,TAAGGCACGTGAAGGG,0.12
10,AAGAGCACGTGAGAGG,0.04
11,TATGGCACGTGTTTTA,-0.09
12,AATGGCACGTGCGGCT,-0.03
13,GGTTTCACGTGGGCCA,0.21
14,CGTGGCACGTGCAGAG,0
15,GTTGTCACGTGGTCTG,0.02
16,ATTAGCACGTGGGTTC,-0.21
17,TATGACACGTGGCGTG,-0.12
18,GTTGACACGTGTGGAG,0.23
19,AGGTTCACGTGCGGCT,0.2
20,TTTTACACGTGGTCTT,0.14
21,GTTCTCACGTGGTTTA,0.27
22,TTCTGCACGTGTCAGG,0.05
23,TGAAGCACGTGTAGCG,0
24,ATTTTCACGTGGTAAT,0.3
25,TGCTGCACGTGCATGG,-0.02
26,TAATGCACGTGTCTGG,0.03

row,Sequence,relative binding free energy [kcal/mol]
1,CTGGTCACGTGGGTTT,0.03
2,TGTCACACGTGTGCGG,0
3,TGGTGCACGTGAGTTT,0.2
4,AATGTCACGTGGCATT,0
5,AGTTCCACGTGATGTA,0.16
6,AAATTCACGTGTAGCG,0.38
7,TAGGTCACGTGAACGG,0.35
8,GAGTTCACGTGGTTTG,0.31
9,GGGTTCACGTGCGGAC,0.25
10,CGAGGCACGTGCGGTA,-0.18
11,TGTTTCACGTGGTTCA,0.22
12,TTATGCACGTGGGTAG,-0.17
13,ACGTACACGTGGTTGT,-0.06
14,TAAGTCACGTGTGGAG,0.11
15,TGGTTCACGTGGGGCC,0.07
16,GATTACACGTGCGTGG,0.17
17,GTTAGCACGTGTTCTT,0.07
18,TTGTGCACGTGGAATT,-0.01
19,GAAGTCACGTGAGGTG,0.29
20,CGAGGCACGTGGGCGT,-0.19
21,AACGTCACGTGAGGTT,0.2
22,CGATTCACGTGGGTAT,0.13
